About 2,200 (0.71%) of roughly 310,000 compounds showed an effect of 50% or more. Effects have a minus sign here. This is one part of the list.
These compounds were tested against human ether-à-go-go-related gene (hERG) potassium channel (human, UniProt Q12809) (assay: primary screen, population patch clamp on CHO cells stably expressing hERG).
human ether-à-go-go-related gene (hERG) potassium channel, sequence (Q12809 whole entry, looked up): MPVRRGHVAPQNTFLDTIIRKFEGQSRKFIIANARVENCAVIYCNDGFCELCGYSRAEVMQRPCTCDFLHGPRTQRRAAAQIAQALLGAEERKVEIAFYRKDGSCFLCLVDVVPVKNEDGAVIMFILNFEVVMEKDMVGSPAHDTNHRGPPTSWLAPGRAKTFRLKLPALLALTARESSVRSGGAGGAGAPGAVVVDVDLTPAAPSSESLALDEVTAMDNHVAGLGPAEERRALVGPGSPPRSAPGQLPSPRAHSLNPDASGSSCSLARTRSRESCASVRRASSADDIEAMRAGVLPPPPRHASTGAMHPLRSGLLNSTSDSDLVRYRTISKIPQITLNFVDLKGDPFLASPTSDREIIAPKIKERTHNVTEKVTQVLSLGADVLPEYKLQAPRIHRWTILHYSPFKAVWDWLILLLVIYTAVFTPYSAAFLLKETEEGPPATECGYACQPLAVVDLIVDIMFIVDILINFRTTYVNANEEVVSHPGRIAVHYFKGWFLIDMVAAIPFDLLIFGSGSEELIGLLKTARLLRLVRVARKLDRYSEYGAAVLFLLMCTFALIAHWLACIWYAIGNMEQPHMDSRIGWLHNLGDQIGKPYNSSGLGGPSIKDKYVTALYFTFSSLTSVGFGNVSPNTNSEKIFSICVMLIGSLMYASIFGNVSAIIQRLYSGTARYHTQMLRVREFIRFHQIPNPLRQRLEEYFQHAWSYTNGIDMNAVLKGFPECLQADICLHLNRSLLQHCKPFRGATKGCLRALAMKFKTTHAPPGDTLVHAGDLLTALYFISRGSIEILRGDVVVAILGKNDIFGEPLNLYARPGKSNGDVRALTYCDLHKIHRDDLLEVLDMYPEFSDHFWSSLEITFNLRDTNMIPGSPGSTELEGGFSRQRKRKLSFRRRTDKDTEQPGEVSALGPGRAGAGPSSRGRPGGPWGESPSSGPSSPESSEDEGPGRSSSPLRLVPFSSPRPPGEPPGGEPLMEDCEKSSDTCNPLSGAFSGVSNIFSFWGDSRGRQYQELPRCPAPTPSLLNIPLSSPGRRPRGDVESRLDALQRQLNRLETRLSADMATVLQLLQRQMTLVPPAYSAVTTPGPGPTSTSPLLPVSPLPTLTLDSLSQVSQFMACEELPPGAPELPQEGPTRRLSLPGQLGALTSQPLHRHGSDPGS

| SMILES | hERG current change (%, negative = inhibition) at 1uM [%] |
| --- | --- |
| COc1ccc(-c2nnc(SCC(N)=O)n2N)cc1 | 8.86 |
| O=C(/C=C/c1cccnc1)c1cccc(O)c1 | 14.3 |
| O=C(CSc1nnc(-c2ccccc2Cl)o1)Oc1ccc(Br)cc1 | 24.7 |
| O=C(/C=C/c1ccco1)NC(=S)Nc1ccc(C(=O)O)cc1 | 10.6 |
| CCC(=NCc1cc(OC)cc(OC)c1)c1c(O)n(C2CCCCC2)c(=O)[nH]c1=O | 18.5 |
| CCc1cc(C(=O)N2CCN(c3ncc(C(F)(F)F)cc3Cl)CC2)sc1C | 6.5 |
| Cc1ccc(OCC(=O)NNC(=O)Cn2c(=O)cnc3ccccc32)cc1 | 9.53 |
| Cc1nn(C)cc1S(=O)(=O)N1CCN(c2cccc(Cl)c2)CC1 | 14 |
| NC(=O)N\N=C/C=C/C=C/c1ccc(F)cc1 | 17.8 |
| CC(C)CC(c1nnnn1Cc1cccs1)N1CCN(c2nc3ccccc3s2)CC1 (centres unmarked) | 7.06 |
| CNS(=O)(=O)c1cc(Cl)ccc1Sc1ccccc1C(=O)O | 12.6 |
| COC(C[C@H]1O[C@H]1C(=O)[C@H](C)OCc1ccccc1)OC | 18.3 |
| COc1ccc(Cn2c(=O)c3cccnc3n(Cc3ccc([N+](=O)[O-])cc3)c2=O)cc1 | 10.9 |
| Cc1nc(-c2ccc(S(=O)(=O)Nc3cccc(Cl)c3)cc2)co1 | 17.3 |
| c1ccc2c(c1)nc1n2CCN1CCNC1CCCCC1 | -0.965 |
| Cc1cc(C(=O)COc2cccc3cccnc23)c(C)n1C | 14.2 |
| Cc1cc(=O)[nH]c(SCC(=O)c2ccc(C)c(C)c2)n1 | 18.1 |
| Cc1ccc2nc(-c3ccccc3)nc(SC(C)C(=O)NCc3cccs3)c2c1 (centres unmarked) | 16.6 |
| Cc1nc2ccccc2c(=O)n1NC(=O)C1CC1 | 11.6 |
| O=C(Nc1ccccc1-c1nnc(SCc2ccccc2Cl)o1)c1ccccc1 | -6.53 |
| Cc1cccc(N(CC(=O)NCCC2=CCCCC2)S(C)(=O)=O)c1C | 2.15 |
| O=C(c1ccc(Cl)s1)N1CCN(c2ccccc2)CC1 | -3.28 |
| CC(=O)N1CC(C)Sc2ccc(S(=O)(=O)NC(C)c3ccccc3)cc21 (centres unmarked) | 8.39 |

| SMILES | hERG current change (%, negative = inhibition) at 1uM [%] |
| --- | --- |
| COc1ccccc1C(=O)Nc1nc2cc3c(cc2s1)OCCO3 | 18.2 |
| CCOc1ccc(S(=O)(=O)NC2CCCCC2C)cc1 (centres unmarked) | 8.98 |
| Cc1ccc(C)c(S(=O)(=O)Nc2cc(SCC(=O)O)c(O)c3ccccc23)c1 | 6.16 |
| CC(=O)n1cc([C@@H]2C=C(C(=O)N3CCN(C)CC3)O[C@H](OCc3ccc(CO)cc3)C2)c2ccccc21 | -1.61 |
| Cc1ccc(CNC(=O)C2CCCN(c3cnccn3)C2)cc1 (centres unmarked) | 19.9 |
| COc1cccc(C(O)c2cnc(C(C)C)n2C)c1OC (centres unmarked) | 7.91 |
| CC(C)(C)OC(=O)NCCCCCNC(=O)c1[nH]cnc1C(=O)Nc1ccccc1 | -15.4 |
| Cc1cc(CN(C)C(=O)c2ccc3nc(Cc4ccccc4F)oc3c2)n[nH]1 | 10.9 |
| CCOCCCNC(=O)C(c1ccc(Cl)cc1)N(Cc1ccc2c(c1)OCO2)C(=O)CNC(C)=O (centres unmarked) | 15 |
| Cl.O=C(CN1CCCCCC1)Nc1ccc(Oc2ccccc2)cc1 | -5.19 |
| O=C(COC(=O)CCc1c[nH]c2ccccc12)NCc1ccc2c(c1)OCO2 | 5.89 |
| O=C(COc1ccc2c3c(c(=O)oc2c1)CCC3)Nc1ccc(CCO)cc1 | 15 |
| O=C(CSC1=NCCS1)Nc1cccc2ccccc12 | 13.9 |
| Cc1nc(C/C(=N\N)c2ccc(O)cc2O)cs1 | 9.62 |
| CCOC(=O)C1(CCc2ccccc2)CCN(C(=O)CN2C(=O)CSC2=O)CC1 | -1.8 |
| COc1ccc(S(=O)(=O)NC2CCc3ccccc32)cc1OC (centres unmarked) | 9.62 |
| O=C1NC2(CCCc3ccccc32)C(=O)N1CCOc1ccc(Br)cc1 (centres unmarked) | 2.5 |
| CNC(=O)Nc1ccc2snnc2c1 | 6.9 |
| CCc1ccc(/C=C/C(=O)C2C(=O)c3ccccc3C2=O)cc1 | 11.2 |
| CCS(=O)(=O)C(=C1Nc2ccccc2N1)S(=O)(=O)CC | 10.7 |
| COc1cccc(N2CCN(S(=O)(=O)c3cn(C)cn3)CC2)c1 | 18.7 |
| COCC(=O)Nc1c(C(=O)N2CCCC2)oc2ccccc12 | 8.9 |
| Clc1ccc(-c2noc(CSc3nnc(Cc4cccs4)n3-c3ccccc3)n2)cc1 | 14.7 |

| SMILES | hERG current change (%, negative = inhibition) at 1uM [%] |
| --- | --- |
| Cc1ccc(S(=O)(=O)NC(Cc2ccccc2)C(=O)O)cc1C (centres unmarked) | 15.1 |
| CCOC(=O)c1c(S(=O)(=O)N(C)Cc2ccccc2)c(C)n(C)c1C | 9.71 |
| CN(C)CCCN(C(=O)c1ccc(S(=O)(=O)N2CCOCC2)cc1)c1nc2ccc(F)cc2s1.Cl | -24.3 |
| CCc1ccc(C(=O)c2cc3ccc(O)cc3oc2=O)cc1 | 10.2 |
| CCOC(=O)c1cc2sc(C)cc2n1CC(=O)NCCc1ccccc1 | 14.1 |
| C/C(=N\N=C1\NC(=O)CC(C(=O)O)S1)c1ccc(F)cc1 (centres unmarked) | 5.88 |
| O=C(O)CCCCCn1c(SCC(=O)Nc2ccc(F)cc2)nc2ccsc2c1=O | -5.56 |
| O=C(COC(=O)c1ncc(Cl)c(Cl)c1Cl)c1ccc(Cl)s1 | 11 |
| CCCCCCCCCCOC(=O)Cn1c(COc2cccc(OC)c2)[n+](C)c2ccccc21.[Cl-] | -37.3 |
| COC(=O)c1ccc(NC(=S)N2CCN(Cc3ccc(Cl)cc3)CC2)cc1 | 19 |
| CC(C)NC(=O)CSCc1ccccc1Cl | -4.23 |
| COCCCNC(=O)c1cc(Nc2ccc(OC)cc2OC)nc2ccccc12 | 9.04 |
| O=C(/C=C/c1ccc(Cl)cc1Cl)N1CCN(c2ccc([N+](=O)[O-])c(N3CCOCC3)c2)CC1 | 6.87 |
| CC(C)CNC(=O)C(=O)N/N=C/c1cccs1 | 13.4 |
| COc1ccc(CCNC(=O)C(=O)NCC2OCCN2S(=O)(=O)c2ccc(OC)cc2)cc1 (centres unmarked) | -8.98 |
| Cc1cc2c(c(=O)n1CCc1ccccc1)C(C(C)C)C(C#N)=C(N)O2 (centres unmarked) | 7.63 |
| O=C(c1ccccc1)N1CN2CN(C(=O)c3ccccc3)CC([N+](=O)[O-])(C2)C1 | 18.8 |
| Cc1sc(NC(=O)Cn2nc(C(F)(F)F)cc2C)c(C(=O)OC(C)C)c1C | 10.6 |
| O=C(NCCn1cccn1)C1CCC(=O)N(CCc2cccc(F)c2)C1 (centres unmarked) | 4.19 |
| CCC(CC)C(=O)Nc1ccc(C)cc1O | 18 |
| O=c1c2ccccc2cnn1-c1ccc2ccccc2c1 | 7.5 |
| O=C(CCN1C(=O)S/C(=C\c2ccccc2)C1=O)N1CCCCC1 | 6.47 |
| COc1ccc(CNC(=O)CN(C(=O)c2snc(C(N)=O)c2N)c2cccc(F)c2)cc1 | 4.82 |

| SMILES | hERG current change (%, negative = inhibition) at 1uM [%] |
| --- | --- |
| COc1cc(/C=N\NC(=O)c2cccnc2)ccc1OC(=O)c1ccccc1Cl | -1.22 |
| CCOc1ccc(NC(=O)CCN2C(=O)CSc3ccccc32)cc1 | -5.03 |
| Cc1cccn2c(=O)c(/C=C(\C#N)S(=O)(=O)c3ccccc3)c(N3CCCCC3)nc12 | 12.9 |
| O=C(OC1CCOC1=O)c1cccc(S(=O)(=O)Nc2ccc(F)cc2)c1 (centres unmarked) | 11.7 |
| CCN(CC)S(=O)(=O)c1ccccc1/C=N\O | 2 |
| CCC(C)[C@H](NC(=O)N1CCC(Cc2ccccc2)CC1)C(=O)O (some centres unmarked) | 15.1 |
| CC(NC(=O)C1CCN(c2nnc(N3CCCC3=O)s2)CC1)c1ccccc1 (centres unmarked) | 11.8 |
| Cn1c(=O)c2c(nc(NCc3ccc4c(c3)OCO4)n2C)n(C)c1=O | -6.61 |
| Cc1ccc(CNc2ccc(N3CCOCC3)cc2)s1 | 2.51 |
| CC(C)C(=O)C1=Cc2cc([N+](=O)[O-])ccc2OC1N1CCOCC1 (centres unmarked) | 9.39 |
| Cn1c(SCc2ccc(C#N)cc2)nnc1-c1ccncc1 | 6.61 |
| CCC1CCCCN1C(=O)c1ccc(OC)c(OC2CCN(C(C)C)CC2)c1 (centres unmarked) | 6.4 |
| COc1ccccc1NC(=O)C1CCCN(S(=O)(=O)c2cnc[nH]2)C1 (centres unmarked) | 16.6 |
| O=C(c1cccc(F)c1)N1CCN(C(=O)c2cc3nc(-c4ccco4)cc(C(F)(F)F)n3n2)CC1 | -7.98 |
| CSc1ccc(CNc2ccccn2)cc1 | -11.2 |
| CN(CCC#N)C(=O)COC(=O)[C@H](Cc1ccccc1)N1C(=O)c2ccccc2C1=O | 9.69 |
| C=CCOc1ccccc1CN1CCC(Oc2ccc(C(=O)N3CCCC3)cc2)CC1 | -19.5 |
| CCCCn1c2nc3ccccc3nc2c2c(=O)n(CCC)cnc21 | 10.8 |
| CCOC(=O)N1CCN(C(=O)c2ccc(NC(=O)CC)cc2)CC1 | 7.4 |
| CCOC(=O)C1(CC2CCCCO2)CCN(S(=O)(=O)c2ccc(C)s2)CC1 (centres unmarked) | -12.1 |
